Measurements reported in a collection of fitness landscapes (doi:10.1016/j.celrep.2020.107928).
The full ranking holds about 81,000 sequences; the median of “one-hybrid fitness for binding NBS DNA” is about -0.1, and the highest 2% start at about 0.36. Some of the results follow.

B1: Caulobacter ParB omega fusion; a variant is named by its letters at X, in order, B8GW30 (parent)
chain: MESVVVGEPGMSEGRRGLGRGLSALLGEVDAAPAQAPGEQLGGSREAPIEILQRNPDQPRRTFREEDLEDLSNSIREKGVLQPILVRPSPDTAGEYQIVAGERAWRAAQRAGLKTVPIMVRELDDLAVLEIGIIENVQRADLNVLEEALSYKVLMEKFERTQENIAQTIGKSXSHVANXMRLLXLPDEVQSYLVSGELTAXHARAIAAAADPVALAKQIIEGGLSVRETEALARKAPNLSAGKSKGGRPPRVKDTDTQALESDLSSVLGLDVSIDHRGSTGTLTITYATLEQLDDLCNRLTRGI

Variants of: B1
Experiment: one-hybrid fitness for binding NBS DNA (the Noc-binding site; scaled: cognate 1, non-cognate 0); higher = stronger binding
Settings: with NBS DNA site
Method in brief: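 Fitness is the rescaled log change in variant-to-wild-type read ratio, measured by Illumina sequencing of plasmids before and after bacterial one-hybrid selection. The scale puts cognate at 1 and non-cognate at 0. Selection of Caulobacter ParB libraries, four specificity codons randomised, took place in E. coli USO with a HIS3 reporter, site 19 bp from the promoter, over 48 hours at 37°C on M9-minus-histidine with 0.1 mM IPTG and 5 mM 3-AT.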

Variant	one-hybrid fitness for binding NBS DNA
LGDR	≤ 0.2
LRVF	≤ 0.2
NCNT	≤ 0.2
PAIF	≤ 0.2
FHEV	≤ 0.2
VMYG	≤ 0.2
APAP	≤ 0.2
PPSM	≤ 0.2
GLFL	≤ 0.2
MFYR	≤ 0.2
PLAH	≤ 0.2
AVQG	≤ 0.2
RPME	≤ 0.2
NVNG	≤ 0.2
ICWE	≤ 0.2
KMSV	≤ 0.2
KKAM	≤ 0.2
QLFA	≤ 0.2
LQKI	≤ 0.2
CGMG	≤ 0.2
FPCM	≤ 0.2
TNCG	≤ 0.2
DYPL	≤ 0.2
WKNR	≤ 0.2

Variant	one-hybrid fitness for binding NBS DNA
WVLT	≤ 0.2
DGRC	≤ 0.2
RTHA	0.291
QREY	0.256
PRPH	≤ 0.2
QILC	≤ 0.2
VEHK	≤ 0.2
GIGA	≤ 0.2
DVSC	≤ 0.2
QLAM	≤ 0.2
IPPC	≤ 0.2
SIWS	≤ 0.2
PRLM	≤ 0.2
TQAF	≤ 0.2
LQAF	≤ 0.2
NPNR	≤ 0.2
TIDS	≤ 0.2
SLRD	≤ 0.2
GDWS	≤ 0.2
PIWE	≤ 0.2
VFLG	≤ 0.2
QCSE	≤ 0.2
GWKM	≤ 0.2
AKPS	≤ 0.2

Variant	one-hybrid fitness for binding NBS DNA
CSVW	≤ 0.2
QYPC	≤ 0.2
WLTL	≤ 0.2
TGTF	≤ 0.2
PCCD	≤ 0.2
HCNG	≤ 0.2
RPVC	≤ 0.2
RWRN	≤ 0.2
HCKT	≤ 0.2
THIG	≤ 0.2
DHAR	≤ 0.2
VLWF	≤ 0.2
THKW	≤ 0.2
RKIP	≤ 0.2
SCMY	≤ 0.2
LQDE	≤ 0.2
NLFL	≤ 0.2
QERS	≤ 0.2
REMM	≤ 0.2
SCPS	≤ 0.2
YQYT	≤ 0.2
YPSC	≤ 0.2
YFWG	≤ 0.2
AFWA	≤ 0.2

Variant	one-hybrid fitness for binding NBS DNA
SVMS	≤ 0.2
QYGM	≤ 0.2
LLSE	≤ 0.2
HLYC	≤ 0.2
ASMW	≤ 0.2
HHIQ	≤ 0.2
NPCR	≤ 0.2
DICG	≤ 0.2
YCQV	≤ 0.2
PWST	≤ 0.2
VLNS	≤ 0.2
TDSQ	≤ 0.2
ITKR	0.289
YLMH	≤ 0.2
QRYI	0.254
QIGT	0.331
HRAF	≤ 0.2
FHEY	≤ 0.2
PKLC	≤ 0.2
VEKT	≤ 0.2
YDAS	≤ 0.2
GDDS	≤ 0.2
YANG	≤ 0.2
RMAV	≤ 0.2

Variant	one-hybrid fitness for binding NBS DNA
RAPY	≤ 0.2
GQVT	≤ 0.2
ARWA	≤ 0.2
MQPS	≤ 0.2
KTKF	≤ 0.2
NRLH	≤ 0.2
GYRD	≤ 0.2
QHME	≤ 0.2
NQLR	≤ 0.2
SGEG	≤ 0.2
QAGL	≤ 0.2
DHQQ	≤ 0.2
LNVT	≤ 0.2
IKVT	≤ 0.2
QPVV	≤ 0.2
IQLS	≤ 0.2
YMYR	≤ 0.2
QDAV	≤ 0.2
GRDR	≤ 0.2
RHAD	≤ 0.2
GIHG	≤ 0.2
GIPC	≤ 0.2
WIHR	≤ 0.2
CNGS	≤ 0.2

Variant	one-hybrid fitness for binding NBS DNA
CRPV	≤ 0.2
KTIE	≤ 0.2
YCAS	≤ 0.2
PLSN	≤ 0.2
QGSF	≤ 0.2
CSVL	≤ 0.2
TRRP	≤ 0.2
SAMS	≤ 0.2
YECG	≤ 0.2
DCQM	≤ 0.2
RFWE	≤ 0.2
QIES	≤ 0.2
AYKF	≤ 0.2
CPQC	≤ 0.2
NPAG	≤ 0.2
VNHR	≤ 0.2
ADNG	≤ 0.2
CLIT	≤ 0.2
PRST	≤ 0.2
YCTL	≤ 0.2
RSYN	≤ 0.2
SEWI	≤ 0.2
LFAL	≤ 0.2
TCMG	≤ 0.2

Variant	one-hybrid fitness for binding NBS DNA
VSPP	≤ 0.2
YDRG	≤ 0.2
SACG	≤ 0.2
SFMT	≤ 0.2
KLNR	≤ 0.2
RMNF	≤ 0.2
TMSL	≤ 0.2
ASIL	≤ 0.2
MDEC	≤ 0.2
RDPS	≤ 0.2
TMQR	≤ 0.2
PDLM	≤ 0.2
FDLM	≤ 0.2
DART	≤ 0.2
TTFC	≤ 0.2
CKHT	≤ 0.2
ISYG	≤ 0.2
AQMG	≤ 0.2
HGLF	≤ 0.2
QVKF	≤ 0.2
SVVF	≤ 0.2
RNQV	≤ 0.2
CSHP	≤ 0.2
HWPE	≤ 0.2

Variant	one-hybrid fitness for binding NBS DNA
AFMR	≤ 0.2
PMRG	≤ 0.2
RKMY	≤ 0.2
DYYM	≤ 0.2
RKLT	0.579
DCQR	≤ 0.2
CELM	≤ 0.2
KCMR	≤ 0.2
RSPK	≤ 0.2
GNDD	≤ 0.2
SLPM	≤ 0.2
QPGS	≤ 0.2
IMEV	≤ 0.2
RRAS	0.655
GTHP	≤ 0.2
LHLM	≤ 0.2
TQKC	≤ 0.2
KSTL	≤ 0.2
GYGY	≤ 0.2
KPPM	≤ 0.2
PQSC	≤ 0.2
HVPR	≤ 0.2
TSDL	≤ 0.2
YHHT	≤ 0.2

Variant	one-hybrid fitness for binding NBS DNA
IALS	≤ 0.2
SQGA	≤ 0.2
TLHT	≤ 0.2
VIWG	≤ 0.2
PQMW	≤ 0.2
QWTY	≤ 0.2
YILS	≤ 0.2
NIDM	≤ 0.2
RLRM	≤ 0.2
GPGN	≤ 0.2
EWKS	≤ 0.2
QPNA	≤ 0.2
FLPL	≤ 0.2
GSMR	≤ 0.2
TDVD	≤ 0.2
TQPV	≤ 0.2
QQMG	≤ 0.2
KTKC	≤ 0.2
QLPD	≤ 0.2
SKNL	≤ 0.2
WEYT	≤ 0.2
PFNS	≤ 0.2
GSQM	≤ 0.2
PVPI	≤ 0.2

Variant	one-hybrid fitness for binding NBS DNA
QYMT	0.416
RRNQ	0.313
KRKW	≤ 0.2
HRSI	≤ 0.2
SVST	≤ 0.2
RFCP	≤ 0.2
DPLK	≤ 0.2
RMAH	≤ 0.2
QFKR	0.595
EHVC	≤ 0.2
GCAR	≤ 0.2
QLAW	≤ 0.2
GAAV	≤ 0.2
SMTA	≤ 0.2
WHLM	≤ 0.2
EYNS	≤ 0.2
TIDA	≤ 0.2
TCAH	≤ 0.2
DCAF	≤ 0.2
NTYC	≤ 0.2
AHWG	≤ 0.2
QDIE	≤ 0.2
RFKM	≤ 0.2
GIRS	≤ 0.2

Variant	one-hybrid fitness for binding NBS DNA
RLAP	≤ 0.2
HLAF	≤ 0.2
RNGQ	≤ 0.2
QESF	≤ 0.2
VESI	≤ 0.2
TETV	≤ 0.2
SHNL	≤ 0.2
WGTF	≤ 0.2
PFRA	≤ 0.2
ITFI	≤ 0.2
TYMP	≤ 0.2
RMIK	≤ 0.2
SKRM	≤ 0.2
HDFS	≤ 0.2
GGQP	≤ 0.2
YEHR	≤ 0.2
IYAT	≤ 0.2
NRIQ	≤ 0.2
RQKG	≤ 0.2
PKKV	≤ 0.2
VTIL	≤ 0.2
GSWY	≤ 0.2
CLKH	≤ 0.2
EYAP	≤ 0.2

Variant	one-hybrid fitness for binding NBS DNA
HLCR	≤ 0.2
SSET	≤ 0.2
LLVY	≤ 0.2
MACT	≤ 0.2
GWMY	≤ 0.2
KWNS	≤ 0.2
ERLL	≤ 0.2
PWNS	≤ 0.2
NETL	≤ 0.2
QTAS	0.51
NSGN	≤ 0.2
RNKN	≤ 0.2
QVST	0.318
CTNT	≤ 0.2
SPLW	≤ 0.2
WYHM	≤ 0.2
NRNN	≤ 0.2
VNIG	≤ 0.2
VHRH	≤ 0.2
QRSP	≤ 0.2
IYRY	≤ 0.2
TDLC	≤ 0.2
TYRK	≤ 0.2
MSYV	≤ 0.2

Variant	one-hybrid fitness for binding NBS DNA
FGRC	≤ 0.2
MPTR	≤ 0.2
HLPD	≤ 0.2
QSMN	≤ 0.2
RDRV	≤ 0.2
LAQV	≤ 0.2
THHM	≤ 0.2
CRSQ	≤ 0.2
VQTI	≤ 0.2
KKLN	≤ 0.2
NDRD	≤ 0.2
LCDV	≤ 0.2
KFNR	≤ 0.2
QWAK	≤ 0.2
NENV	≤ 0.2
NINL	≤ 0.2
FNDS	≤ 0.2
AFMC	≤ 0.2
